Common to all, as to assay: cell count relative to DMSO control; melanoma cells; higher = more viable cells
Holding throughout (conditions): library dose: standard library concentration; 72 h

In experiment [1] the test system is A101D.
Experiment [2] deals with A2058.
Experiment [3] has as its system A375.

This is one part of the list. Most values come without repeats; read them as rough.
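Also: cells treated in 1,536-well plates, then fixed and DAPI-stained, with nuclei counted from automated high-throughput microscope images.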

Regarding `Cc1ccc(Nc2nccc(N(C)c3ccc4c(C)n(C)nc4c3)n2)cc1S(N)(=O)=O` [Pazopanib] + NC(=O)Nc1cc(-c2cccc(F)c2)sc1C(=O)N[C@H]1CCCNC1 [AZD7762] (first compound 2 µM, partner dose 0.1 µM), the cell count turned out to be 68.1% in experiment [1], 97.9% in experiment [2] and 65.8% in experiment [3].
In the same order, the values of `Cc1ccc(Nc2nccc(N(C)c3ccc4c(C)n(C)nc4c3)n2)cc1S(N)(=O)=O` [Pazopanib] + COc1ccc(C2=N[C@@H](c3ccc(Cl)cc3)[C@@H](c3ccc(Cl)cc3)N2C(=O)N2CCNC(=O)C2)c(OC(C)C)c1 [Nutlin-3] (first compound 2 µM, partner dose 0.5 µM) are 63.9%, 88.5% and 64.3%.
As for `CC1(C)CCC(c2ccc(Cl)cc2)=C(CN2CCN(c3ccc(C(=O)NS(=O)(=O)c4ccc(N[C@H](CCN5CCOCC5)CSc5ccccc5)c(S(=O)(=O)C(F)(F)F)c4)cc3)CC2)C1` + Cc1nc(Nc2ncc(C(=O)Nc3c(C)cccc3Cl)s2)cc(N2CCN(CCO)CC2)n1 [dasatanib] (first compound 2 µM, partner dose 0.02 µM), the cell count worked out at 41.6% in experiment [1], 66.5% in experiment [2] and 52.1% in experiment [3].
In the case of `Cc1ccc(Nc2nccc(N(C)c3ccc4c(C)n(C)nc4c3)n2)cc1S(N)(=O)=O` [Pazopanib] + C[C@@H](N)c1ccc(C(=O)Nc2ccnc3[nH]ccc23)cc1 [RKI983] (first compound 2 µM, partner dose 2 µM), the cell count turned out to be 79% in experiment [1], 54.8% in experiment [2] and 109% in experiment [3].
With `Cc1ccc(Nc2nccc(N(C)c3ccc4c(C)n(C)nc4c3)n2)cc1S(N)(=O)=O` [Pazopanib] + C[C@@H]1CCN(C(=O)CC#N)C[C@@H]1N(C)c1ncnc2[nH]ccc12 [CP690550] (first compound 2 µM, partner dose 5 µM), the cell count in experiment [1] stood at 98.7%; in experiment [2], 112%; in experiment [3], 76.2%.
In the same order, the values of `O=C(/C=C/c1cccnc1)NCCCCC1CCN(C(=O)c2ccccc2)CC1` + C#Cc1cccc(Nc2ncnc3cc(OCCOC)c(OCCOC)cc23)c1 [erlotinib] (first compound 0.05 µM, partner dose 4 µM) are 64.8%, 90% and 115%.
The corresponding values for `O=C(/C=C/c1cccnc1)NCCCCC1CCN(C(=O)c2ccccc2)CC1` + COc1cc2c(Oc3ccc4[nH]c(C)cc4c3F)ncnc2cc1OCCCN1CCCC1 [cediranib] (first compound 0.05 µM, partner dose 2 µM) are 85.4%, 94.8% and 139%.
The corresponding values for `Cc1ccc(Nc2nccc(N(C)c3ccc4c(C)n(C)nc4c3)n2)cc1S(N)(=O)=O` [Pazopanib] + CO[C@@H]1[C@H](N(C)C(=O)c2ccccc2)C[C@H]2O[C@]1(C)n1c3ccccc3c3c4c(c5c6ccccc6n2c5c31)C(=O)NC4 [Midostaurin] (first compound 2 µM, partner dose 0.4 µM) are 68.9%, 65.8% and 76.3%.
Take `Cc1ccc(Nc2nccc(N(C)c3ccc4c(C)n(C)nc4c3)n2)cc1S(N)(=O)=O` [Pazopanib] + Cc1ccc(NC(=O)c2cccc(N(C)C)c2)cc1NC(=O)c1ccc(O)cc1 [ZM336372] (first compound 2 µM, partner dose 10 µM): the cell count is 74.5% in experiment [1], 96.2% in experiment [2] and 97.5% in experiment [3].
`CC1(C)CCC(c2ccc(Cl)cc2)=C(CN2CCN(c3ccc(C(=O)NS(=O)(=O)c4ccc(N[C@H](CCN5CCOCC5)CSc5ccccc5)c(S(=O)(=O)C(F)(F)F)c4)cc3)CC2)C1` + CS(=O)(=O)CCNCc1ccc(-c2ccc3ncnc(Nc4ccc(OCc5cccc(F)c5)c(Cl)c4)c3c2)o1 [lapatinib] (first compound 2 µM, partner dose 4 µM): the values for the cell count in experiment [1], in experiment [2] and in experiment [3] were 28.2%, 72.8% and 47.5%, respectively.
With `Cc1ccc(Nc2nccc(N(C)c3ccc4c(C)n(C)nc4c3)n2)cc1S(N)(=O)=O` [Pazopanib] + CN(C)S(=O)(=O)c1ccc2c(c1)/C(=C/c1cc3c([nH]1)CCCC3)C(=O)N2 [SU6656] (first compound 2 µM, partner dose 2 µM), the cell count in experiment [1] was determined as 62.8%; in experiment [2] it was 84%; in experiment [3], 111%.
Regarding `CC1(C)CCC(c2ccc(Cl)cc2)=C(CN2CCN(c3ccc(C(=O)NS(=O)(=O)c4ccc(N[C@H](CCN5CCOCC5)CSc5ccccc5)c(S(=O)(=O)C(F)(F)F)c4)cc3)CC2)C1` + COc1ccc(C2=N[C@@H](c3ccc(Cl)cc3)[C@@H](c3ccc(Cl)cc3)N2C(=O)N2CCNC(=O)C2)c(OC(C)C)c1 [Nutlin-3] (first compound 2 µM, partner dose 0.5 µM), the figures for the cell count in experiment [1], in experiment [2] and in experiment [3] were 36.8%, 94.2% and 55%, respectively.
Turning to `O=C(/C=C/c1cccnc1)NCCCCC1CCN(C(=O)c2ccccc2)CC1` + NC(=O)c1ccc(N(C(N)=O)c2c(F)cccc2F)nc1-c1ccc(F)cc1F [VX702] (first compound 0.05 µM, partner dose 2 µM), the values for the cell count in experiment [1], in experiment [2] and in experiment [3] were 73%, 94.8% and 122%, respectively.
Consider `O=C(/C=C/c1cccnc1)NCCCCC1CCN(C(=O)c2ccccc2)CC1` + Cn1c(Nc2ccc(C(F)(F)F)cc2)nc2cc(Oc3ccnc(-c4ncc(C(F)(F)F)[nH]4)c3)ccc21 [CHIR265] (first compound 0.05 µM, partner dose 0.4 µM), for which the cell count was 50.3% in experiment [1], 64.4% in experiment [2] and 79.5% in experiment [3].
In the same order, the values of `Cc1ccc(Nc2nccc(N(C)c3ccc4c(C)n(C)nc4c3)n2)cc1S(N)(=O)=O` [Pazopanib] + Nc1ncn([C@H]2C[C@H](O)[C@@H](CO)O2)c(=O)n1 [decitabine] (first compound 2 µM, partner dose 0.5 µM) are 81.7%, 87.9% and 87.9%.
On to `O=C(/C=C/c1cccnc1)NCCCCC1CCN(C(=O)c2ccccc2)CC1` + O=C(O)c1ccc(-c2c[nH]c3ncc(-c4ccccc4)cc23)cc1C1CCCC1 [GSK650394] (first compound 0.05 µM, partner dose 0.8 µM), for which the results for the cell count in experiment [1], in experiment [2] and in experiment [3] were 84.9%, 97.4% and 119%, respectively.
With `CC1(C)CCC(c2ccc(Cl)cc2)=C(CN2CCN(c3ccc(C(=O)NS(=O)(=O)c4ccc(N[C@H](CCN5CCOCC5)CSc5ccccc5)c(S(=O)(=O)C(F)(F)F)c4)cc3)CC2)C1` + CN1CCN(c2ccc3nc(-c4c(N)c5c(F)cccc5[nH]c4=O)[nH]c3c2)CC1 [Dovitinib] (first compound 2 µM, partner dose 0.5 µM), the cell count in experiment [1] was determined as 21%; in experiment [2] it was 23.9%; in experiment [3], 27%.
Consider `Cc1ccc(Nc2nccc(N(C)c3ccc4c(C)n(C)nc4c3)n2)cc1S(N)(=O)=O` [Pazopanib] + COc1cc(Nc2ncc(F)c(Nc3ccc4c(n3)NC(=O)C(C)(C)O4)n2)cc(OC)c1OC [Tamatinib] (first compound 2 µM, partner dose 2 µM), for which the cell count in experiment [1] was 62.2%; in experiment [2], 72.3%; in experiment [3], 86.5%.
Turning to `CC1(C)CCC(c2ccc(Cl)cc2)=C(CN2CCN(c3ccc(C(=O)NS(=O)(=O)c4ccc(N[C@H](CCN5CCOCC5)CSc5ccccc5)c(S(=O)(=O)C(F)(F)F)c4)cc3)CC2)C1` + C=C(c1ccc(C(=O)O)cc1)c1cc2c(cc1C)C(C)(C)CCC2(C)C [Bexarotene] (first compound 2 µM, partner dose 10 µM), the cell count in experiment [1] turned out to be 45.1%; in experiment [2], 88.9%; in experiment [3], 61%.
Regarding `O=C(/C=C/c1cccnc1)NCCCCC1CCN(C(=O)c2ccccc2)CC1` + Clc1ccc(Nc2nnc(Cc3ccncc3)c3ccccc23)cc1 [vatalanib] (first compound 0.05 µM, partner dose 10 µM), the cell count was 85.4% in experiment [1], 83.6% in experiment [2] and 105% in experiment [3].
The corresponding values for `CC1(C)CCC(c2ccc(Cl)cc2)=C(CN2CCN(c3ccc(C(=O)NS(=O)(=O)c4ccc(N[C@H](CCN5CCOCC5)CSc5ccccc5)c(S(=O)(=O)C(F)(F)F)c4)cc3)CC2)C1` + Cc1cc(N2CCOCC2)cc2[nH]c(-c3c(NC[C@@H](O)c4cccc(Cl)c4)cc[nH]c3=O)nc12 [BMS536924] (first compound 2 µM, partner dose 1 µM) are 43.1%, 77.6% and 76.6%.
The corresponding values for `CC1(C)CCC(c2ccc(Cl)cc2)=C(CN2CCN(c3ccc(C(=O)NS(=O)(=O)c4ccc(N[C@H](CCN5CCOCC5)CSc5ccccc5)c(S(=O)(=O)C(F)(F)F)c4)cc3)CC2)C1` + C=CCNC1=C2C[C@@H](C)C[C@H](OC)[C@H](O)[C@@H](C)/C=C(\C)[C@H](OC(N)=O)[C@@H](OC)/C=C\C=C(/C)C(=O)NC(=CC1=O)C2=O [Tanespimycin] (first compound 2 µM, partner dose 0.01 µM) are 27%, 86.4% and 58.6%.

Values taken from the supplement of paper PMC4604168 (melanoma cell lines).
